We go through 27 variants from the RNAGym collection of RNA variant scans (doi:10.1101/gad.245936.114).

This sample is rich in variants without activity.

B1: tRNA (parent)
chain: CUCUCGGUAGCCAAGUUGGUUUAAGGCGCAAGACUUUAAUUUAUCACUACGAAAUCUUGAGAUCGGGCGUUCGACUCGCCCCCGGGAGAUUUUUUCCUCGAGCAA

In the series the parent is B1. As to the kind of experiment: nonsense suppression (GFP-seq) (ratio to wild type); higher = more function; SUP4oc tRNA, yeast GFP reporter sort-seq. In short, it runs like this: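 Yeast were grown in raffinose/galactose medium with 80 mg/L adenine, each strain bearing a genome-integrated ochre-suppressor tRNA variant from a ~3% random-mutation library, a galactose-driven GFP ochre reporter, and RFP. After sorting into GFP/RFP bins, every bin was sequenced on an Illumina platform at phred ≥30. The GFPSEQ value, a measure of nonsense suppression, is the weighted bin median GFP/RFP relative to the unmutated parent tRNA, using each variant's estimated cell share per bin as the weight. Only variants with ≥100 reads and ≥30 cells were included.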
As for CUCUCGGUCGCCAAGUUGGUUUAAGUCGCAAGACUUUAAUUUAUCACUACGAAAUCUUAAGAUCGGGCGUUCGACUCGCCCCCGGGAGAUUUUUUCCUCGAGCAA [A9C G26U G59A], the nonsense suppression is ≤ 0.026.

Turning to CUCUCGGUAGCCAAGUUGGUUUAAGGCGCUAGACUUUAAUUUAUCACUACGAAAUCUUGAGAUCGGGCGUUCGACUCGCCCCCGGGACAUUUUUUCCUCGAGCAA [A30U G88C], the nonsense suppression was ≤ 0.026.

Consider CUCUCGGUGGCCAAGUUGGUUUAAGGCGCAAGACUUUAAUUUAUCACUACGAAAUCUUGAGAUCGGGCGAUCGACUCGCCCCCGGCAGAUUUUUUCCUCGAGCAA [A9G U70A G86C], for which the nonsense suppression is ≤ 0.026.

On to CUCUCGGUAGCGAAGUUGGUUUAAGGCACAAGACUUUAAUUUAUCACUACGAAAUCUUGAGAUCGCGCGUUCGACUCGCCCCCGGGAGAUUUUUUCCUCGAGCAA [C12G G28A G66C], for which the nonsense suppression was ≤ 0.026.

As to CUCUCGGUUGCCAAGUUGGUUUAAGGCGCAUGACUUUAAUUUAUCACUACGAAAUCUUGAGAUCGGACGUUCGACUCGCCCCCGUGAGGUUUUUUCCUCGAGCAA [A9U A31U G67A G85U A89G], the nonsense suppression is ≤ 0.026.

UUCUCGGUAGCCAAGUUGGUUUAAGGUGCAAGACUUUAAUUUAUCACUACGAAAUCUUGAGAUCGAGCGUUCGACUCGCCCCCGGGAGAUUUUUUCCUCGAGCAA [C1U C27U G66A]: the nonsense suppression is ≤ 0.026.

Take CUCUCGGUAGCCAAGUUGGUUUAAGGCGCAAGACUUUAAUUUAUCACUACGAAAUGUUGAGAUCGGGCGUUCGACUCGCCUCCGGGAGAUUUUUUCCUCGAGCAA [C56G C81U]: the nonsense suppression was ≤ 0.026.

With CUCUCGGUAGCCAAGUUGGUACAAGGCGCGAGACUUUAAUUUAUCACUACGAAAUCUUGAGAUCCGGCGUUCGACUCGCCCCCGGGAGAUUUUUUCCUCGAGCAA [U21A U22C A30G G65C], the nonsense suppression is ≤ 0.026.

Turning to CUCUCGGUAGCCCAGUUGGUUUAAGGCGCAAGACUUUAAUUUAUCACUACGAAAUCUUGAGAUCGGGCGUUCGACUCACCCCCGGGAGAUUUUUUCCUCGAGCAA [A13C G78A], the nonsense suppression is 0.208.

As for CUCUCGGUAGCCAAGUUGGUUUAAGGCGCAAGACUUUAAUUUAUCACUACGAAAUCUUGAGAUCGGGCGCUCGACGCGCCCCCGGGAGAUUUUUUCCUCGAGCAA [U70C U76G], the nonsense suppression was ≤ 0.026.

Consider CUCUCGGUAGCCAAGAUGGUUUAAUGCGCAAGACUUUAAUUUAUCACUACGAAAUCUUGAAAUCGGGCGUUCGACUCGCCCCCGGGAGAUUUUUUCCUCGAGCAA [U16A G25U G61A], for which the nonsense suppression was ≤ 0.026.

CUCUCGGUAGCCAAGUUGGUUUAAGGCGCUAGAAUUUAAUUUAUCACUACGAAAUCUUGAGAUCGGGCGUUCGACUCGCCCCCGGGAGAUUUUUUCCUCGAGCAA [A30U C34A]: the nonsense suppression is ≤ 0.026.

As for CUCUCGGUAGCCAAGUUGGUUUAAGGCGUAAGACUUUAAUUUAUCACUACGAAAUCUUGCGAUCGGGCGUUCGACAAGCCCCCGGGAGAUUUUUUCCUCGAGCAA [C29U A60C U76A C77A], the nonsense suppression was ≤ 0.026.

CUAUCGGUAGCCAAGUUGGUUUAAGGCGCAAGACUUUAAUUUAUCACUACGAAAUCUUGAGAUCGAGCGUUCGACUCGCGCCCGGCAGAUUUUUUCCUCGAGCAA [C3A G66A C80G G86C]: the nonsense suppression was ≤ 0.026.

As for CUCGCGGUAGCCAAGUUCGUUUAAGGCACAAGACUUUAAUUUAUCACUACGAAAUCUUGAGAUCGGGCGUUCGGCUCGCCCCCGGGAGAUUUUUUCCUCGAGCAA [U4G G18C G28A A74G], the nonsense suppression was ≤ 0.026.

As for CUCUCGGUAGCCAAGUUUGUUUAAGGCGCAAGACUUUAAUUUAUCACUACGAAAUCUUGAGAUCGGGCCUUCGACUCGCCCCCGGGAGAUUUUUUCCUCGAGCAA [G18U G69C], the nonsense suppression was ≤ 0.026.

For CUCUCGGUAGCCUAGUUGGUUUAAGGCGCAAGACUUUAAUUUAUCACUACGAAAUCUUGAGAUCGGGCGUUCGACUCACCCCCGGGAGAUUUUUUCCUCGAGCAA [A13U G78A], the nonsense suppression worked out at 0.179.

Consider CUCUCGGUAGCCAAGUAGGUUUAAGGCGCAAGACUUUAAUUUAUCACUACGAAAUCUUGAGAUCGGGCGUUCGACUCUCCCCCGGGAGAUUUUUUCCUCGAGCAA [U17A G78U], for which the nonsense suppression turned out to be 0.186.

CUCUCGGUAGCGAAGUUGGUUUACGGCGCAAGACUUUAAUUUAUCACUACGAAAGCUUGAGAUCGCGCGUUCGACUCGCCCCCGGGAGAUUUUUUCCUCGAGCAA [C12G A24C U55G G66C]: the nonsense suppression is ≤ 0.026.

Take CUCUCGGUAGCCAAGUUGGUUUAAGGCGCAAGACUUUAAUUUAUCACUACGAAAUCUUGAGAUCGGGCGUUCGACUCGCCCCAGGUAGAUUUUUUCCUCGAGCAA [C83A G86U]: the nonsense suppression is ≤ 0.026.

Take CUCUCGGUAGCCAAGUUGGUUUAAGGCGCAAGUCUUUAAUUUAUCACUACGAAAUCGUGAGAUCGGGCGUUCGACUCGCCCCCGGGAGAUUUUUUCCUCGAGCAA [A33U U57G]: the nonsense suppression is ≤ 0.026.

Take CUCUCGGUAGCCAAGUUGUUUUAGGGCGCAAGACUUUAAUUUAUCACUACGAAAGCUUGAGAUCGGGCGUUCGACUCGCCCCCGGGAGAUUUUUUCCUCGAGCAA [G19U A24G U55G]: the nonsense suppression was ≤ 0.026.

With UCCUCGGUAGCCAAGUUGGUUUAAGGCGCAAUACUUUAAUUUAUCACUACGAAAUCUUGAGAUCGGGCGUUCGACUCGCCCCCGGUAGAUUUUUUCCUCGAGCAA [C1U U2C G32U G86U], the nonsense suppression is ≤ 0.026.

For the variant CUCUAGGUAGCCAAGUUGGUUUAAGGCGCAAGGCUUUAAUUUAUCACUACGAAAUCUUGAGAUCGGGCGUUCGACUCGCCCCCGGGAAAUUUUUUCCUCGAGCAA [C5A A33G G88A], the nonsense suppression was ≤ 0.026.

CUCUCGGUAGUUAAUUUAGUUUAAGGCGCAAGACUUUAAUUUAUCACUACGAAACCUUGAGAUCCGGCGUUCGACUCGCCCCCGGGAGAUUUUUUCCUCGAGCAA [C11U C12U G15U G18A U55C G65C]: the nonsense suppression was ≤ 0.026.

On to CUCUCGGUAGCCAAGUUGGUUUAAGGCUCAAGACAUUAAUUUAUCACUACGAAAUCUUGAGAUCGGGCGUUCGACUCGCCCCCGGGAGAUUUUUUCCUCGAGCAA [G28U U35A], for which the nonsense suppression was ≤ 0.026.

For CUCUCGGUAGCCAAGUUGGUUUAAGGAGCUAGACUUUAAUUUAUCACUACGAAAUCUUGAGAUCGGGCGUUCGACUCGCCCCGGGGAGAUUUUUUCCUCGAGCAA [C27A A30U C83G], the nonsense suppression is ≤ 0.026.
